{"source": "PubChem BioAssay AID463173", "about": "(ICCB-Longwood Screening Facility, Harvard Medical School, 2010)", "note": "Screen size: about 52,000 compounds; about 4,300 (8.3%) were called active. Cut-off read from the data, not from the text of the source: active = survival mostly below about 52% (no sharp cut-off); inactive = mostly above about 56%. This is one part of the list."}
{"system": "DeltatarO mutant", "experiment": "growth inhibition of S. aureus wild type versus tarO mutant, primary screen, teichoic acid synthesis inhibitors, RN4220, OD600 (AID 463173)", "conditions": "OD600, 18 h, stronger effect = lower value, screened at 18.75 µg/mL (by protocol)"}
{"compound": "COc1cccc(N2CCN(C(=O)C3CCN(S(=O)(=O)c4ccc5c(c4)oc(=O)n5C)CC3)CC2)c1", "survival": "inactive: 94%"}
{"compound": "COc1cccc(C(=O)Nc2cc3c(cc2C(=O)c2ccc(C)cc2)OCCO3)c1", "survival": "inactive: 78%"}
{"compound": "CCOC(=O)C1CCCN(c2nc3c(S(=O)(=O)c4ccc(C)c(C)c4)nnn3c3ccc(Cl)cc23)C1", "note": "(stereo not drawn)", "survival": "inactive: 87%"}
{"compound": "CCn1c(=O)c2sccc2n2c(CCC(=O)Nc3cc(C)cc(C)c3)nnc12", "survival": "inactive: 74%"}
{"compound": "Cc1ccc(Cl)cc1N1CCN(c2ncnc3onc(C)c23)CC1", "survival": "active: 52%"}
{"compound": "NS(=O)(=O)c1ccc(N=NSCCO)cc1", "survival": "inactive: 67%"}
{"compound": "COc1ccc(S(=O)(=O)N(Cc2cc3c(C)cc(C)cc3[nH]c2=O)CC2COCCO2)cc1", "note": "(stereo not drawn)", "survival": "inactive: 86%"}
{"compound": "Cc1ccc(NC(=O)c2c(C)oc3ccc(O)c(CN4CCCCCC4)c23)c(C)c1", "survival": "inactive: 74%"}
{"compound": "CCOC(=O)c1[nH]c(C)c(CCC(=O)NCc2ccc(OCC)cc2)c1C", "survival": "inactive: 94%"}
{"compound": "COc1ccc2c(C)c(CC(=O)NCc3ccc(C)cc3)c(=O)oc2c1OC", "survival": "inactive: 106%"}
{"compound": "CC(C)OCCCNC(=O)c1cc2c(-c3ccc(Cl)cc3)nn(C)c2s1", "survival": "inactive: 122%"}
{"compound": "O=C(Nc1ccc2c(c1)Cc1ccccc1-2)c1ccc(Br)o1", "survival": "inactive: 88%"}
{"compound": "COc1cc(NC(=O)C2CCCN(S(=O)(=O)c3ccc4c(c3)oc(=O)n4C)C2)c(C(=O)O)cc1OC", "note": "(stereo not drawn)", "survival": "inactive: 101%"}
{"compound": "CCCCC(Sc1nc2cc3c(cc2c(=O)n1CCCC(=O)NCc1ccc(OC)cc1)OCO3)C(=O)OCC", "note": "(stereo not drawn)", "survival": "inactive: 87%"}
{"compound": "Cc1cccc(C)c1Nc1sc(C(=O)c2ccccc2)c(N)c1C(=O)Nc1ccc(F)cc1", "survival": "inactive: 81%"}
{"compound": "O=C(O)C1CC=CCC1C(=O)NCCc1ccccc1", "note": "(stereo not drawn)", "survival": "inactive: 96%"}
{"compound": "O=C(Cc1cccs1)Nn1c(Cc2cccs2)nc2ccccc2c1=O", "survival": "inactive: 58%"}
{"compound": "CCc1cccc(NC(=O)Cn2nc(-c3ccc(OC)cc3)ccc2=O)c1", "survival": "inactive: 83%"}
{"compound": "CCOC(=O)c1ccc(N2C(=O)c3n[nH]c(-c4cccs4)c3C2c2ccc(C(C)(C)C)cc2)cc1", "note": "(stereo not drawn)", "survival": "inactive: 102%"}
{"compound": "O=C(Nc1nc2n(n1)C(c1ccccc1)C=C(c1ccccc1)N2)c1ccc(Cl)c([N+](=O)[O-])c1", "note": "(stereo not drawn)", "survival": "inactive: 63%"}
{"compound": "COc1cccc(-c2ccc3c(N)c(C(=O)c4ccc(Cl)cc4)sc3n2)c1", "survival": "active: 30%"}
{"compound": "COc1cccc(C(=O)N2c3cc(C)ccc3C(C)(c3ccccc3)CC2(C)C)c1", "note": "(stereo not drawn)", "survival": "active: 1%"}
{"compound": "N#C/C(=C\\c1ccc(Cl)cc1)c1nc(-c2cc3ccccc3oc2=O)cs1", "survival": "inactive: 75%"}
{"compound": "CCOC(=O)c1c(-c2ccccc2)oc2cc(CN(C)C)c(O)c(CN(C)C)c12", "survival": "inactive: 127%"}
{"compound": "CCc1ccc(CNC(=O)c2cnc3sc4cc(OC)ccc4n3c2=O)cc1", "survival": "inactive: 84%"}
{"compound": "CCCn1c2ccccc2c2cnn(CC(=O)N3CCC(C)CC3)c(=O)c21", "survival": "inactive: 76%"}
{"compound": "O=C(CN(CC1CCCO1)S(=O)(=O)c1ccc(S(=O)(=O)N2CCOCC2)cc1)Nc1ccccc1", "note": "(stereo not drawn)", "survival": "inactive: 89%"}
{"compound": "O=C(NCc1ccccc1F)c1ccc(CN2CC(=O)N3CCCCC3C2=O)cc1", "note": "(stereo not drawn)", "survival": "inactive: 73%"}
{"compound": "Cc1ccc(NCc2nnc(SCC(=O)O)n2-c2cccc(Cl)c2)cc1", "survival": "inactive: 106%"}
{"compound": "CC1=C(C#N)C(c2cccc(O)c2)C2=C(CC(c3ccccc3)CC2=O)N1", "note": "(stereo not drawn)", "survival": "inactive: 94%"}
{"compound": "Cc1cc(C)c(NC(=O)Cn2c(=O)n(Cc3ccc4c(c3)OCO4)c(=O)c3ccc(C(=O)NC4CCCCC4)cc32)c(C)c1", "survival": "inactive: 92%"}
{"compound": "C=Cc1ccc(Cn2nc(-c3ccc(C)c(S(=O)(=O)N(CC)CC)c3)ccc2=O)cc1", "survival": "inactive: 53%"}
{"compound": "COc1ccc2cc(-c3nc4ccc(C(=O)O)cc4[nH]3)c(=O)oc2c1", "survival": "inactive: 57%"}
{"compound": "COCCCNC(=O)CCCCn1c(=O)c2ccccc2n(CC(=O)Nc2ccc(C)cc2C)c1=O", "survival": "inactive: 94%"}
{"compound": "Cn1nc(-c2ccc(C(=O)Nc3ccc(F)cc3)cc2)c2ccccc2c1=O", "survival": "inactive: 61%"}
{"compound": "Cc1cccn2c(=O)c3cc(C#N)c(=O)n(-c4nnc(SCc5ccccc5F)s4)c3nc12", "survival": "inactive: 70%"}
{"compound": "COCCNC(=O)CSc1nc2cc3c(cc2c(=O)n1CCCCCC(=O)NCc1ccc(OC)cc1)OCO3", "survival": "inactive: 67%"}
{"compound": "COc1ccc(CNC(=O)c2ccc3c(c2)nc2n3CCC(C)C2)c(OC)c1", "note": "(stereo not drawn)", "survival": "inactive: 99%"}
{"compound": "CC(C)c1ccc(S(=O)(=O)NCc2ccc3c(c2)CCN3C(=O)c2ccccc2)cc1", "survival": "inactive: 87%"}
{"compound": "CCOc1ccccc1NC(=O)Cn1nnc2sc(-c3ccccc3)cc2c1=O", "survival": "active: 39%"}
{"compound": "Cc1cccc(-c2nnc(N(C(=O)C3CCC3)C(C)C)s2)c1", "survival": "inactive: 113%"}
{"compound": "COc1ccc(Nc2ncc3c(n2)CCN(Cc2cc(Br)cs2)C3)c(OC)c1", "survival": "inactive: 75%"}
{"compound": "CCC1/C(=N\\O)CC(c2ccco2)NC1c1ccco1", "note": "(stereo not drawn)", "survival": "inactive: 84%"}
{"compound": "CCOC(=O)c1ccc(N2CCN(c3cc(C)ccc3C)CC2)c(NC(=O)Nc2ccccc2)c1", "survival": "inactive: 79%"}
{"compound": "COc1ccccc1NC(=O)c1cc2c(=O)oc3ccc(C)cc3c2s1", "survival": "inactive: 63%"}
{"compound": "O=C(O)CSc1c2c(nc3cc(C(=O)Nc4ccc(F)c(Cl)c4)ccc13)CCC2", "survival": "inactive: 88%"}
{"compound": "CN1CCN(C(=O)/C(=C/c2ccc(N(C)C)cc2)NC(=O)c2ccccc2)CC1", "survival": "inactive: 78%"}
{"compound": "Cc1ccc(NC(=O)CSc2nc3c(oc4ccccc43)c(=O)n2-c2ccc(F)cc2)c(C)c1", "survival": "inactive: 67%"}
{"compound": "Cc1sc(N)nc1-c1cccs1", "survival": "inactive: 96%"}
{"compound": "O=C(Nc1ccc(C(F)(F)F)cc1)C1CCCN(c2cnccn2)C1", "note": "(stereo not drawn)", "survival": "inactive: 81%"}
{"compound": "CC1CN(C(=O)Nc2ccc(C(=O)NCc3cccc(F)c3)cc2)c2ccccc2S1", "note": "(stereo not drawn)", "survival": "inactive: 57%"}
{"compound": "O=c1c(S(=O)(=O)c2ccccc2)cn(Cc2ccccc2)c2cc(N3CCOCC3)c(F)cc12", "survival": "inactive: 85%"}
{"compound": "CC(C(=O)NCc1ccccc1F)n1ccc2cc(S(=O)(=O)N3CCCC3)ccc21", "note": "(stereo not drawn)", "survival": "inactive: 60%"}
{"compound": "COc1ccc(Br)cc1C(=O)Nc1nc2ccc(F)cc2s1", "survival": "inactive: 80%"}
{"compound": "CCOc1ccccc1NC(=O)c1c(NC(=O)c2cccc(C)c2)sc2c1CCCC2", "survival": "inactive: 76%"}
{"compound": "CCc1ccccc1NC(=O)Nc1cc(C(=O)NCc2ccc(C)cc2)ccc1N1CCCC1", "survival": "inactive: 113%"}
{"compound": "CCOC(=O)c1ccccc1NC(=O)Nc1cc2c(cc1N1CCCCC1)n(C)c(=O)n2C", "survival": "inactive: 76%"}
{"compound": "Cc1nn(-c2ccc(F)cc2)c(-n2cccc2)c1C(=O)NCCCN1CCN(c2ccccc2F)CC1", "survival": "inactive: 78%"}
{"compound": "CCOc1ccc(CNC(=O)CCS(=O)(=O)c2cc3c(cc2Cl)NC(=O)CO3)cc1OC", "survival": "inactive: 74%"}
{"compound": "O=C(Nc1ccc(N2CCC(c3ccccc3)C2)c(C(=O)O)c1)c1ccc(Cl)cc1", "note": "(stereo not drawn)", "survival": "inactive: 60%"}
{"compound": "COc1cccc(NC(=O)CCc2c(C)nc3c4cccnc4nn3c2C)c1", "survival": "inactive: 90%"}
{"compound": "CCOc1ccc(Oc2nc(NCC(C)C)nc(NC(C)(C)C)n2)nn1", "survival": "inactive: 72%"}
{"compound": "CCC(=O)Nc1ccc(Cl)c(NC(=O)c2cc3ccccc3o2)c1", "survival": "inactive: 67%"}
{"compound": "COc1ccccc1OCC(=O)N(Cc1ccc(Cl)cc1)CC1CCCO1", "note": "(stereo not drawn)", "survival": "inactive: 74%"}
{"compound": "CCc1cccc(CC)c1NC(=O)c1ccc2c(c1)CCN2S(=O)(=O)c1ccccc1", "survival": "inactive: 60%"}
{"compound": "Cc1cccc(NC(=O)CN2C(=O)c3cccnc3Oc3ccc(Cl)cc32)c1C", "survival": "inactive: 73%"}
{"compound": "CC1=Nc2cc(C(=O)NC3CCCC3)ccc2Sc2ccc(C)cc21", "survival": "inactive: 59%"}
{"compound": "Cc1nn(-c2nc(-c3ccc(F)cc3)cc(C(F)(F)F)n2)c(C)c1Br", "survival": "active: -2%"}
{"compound": "COc1ccc(NC(=O)Cn2c(C)cc3ccccc3c2=O)c(OC)c1", "survival": "inactive: 59%"}
{"compound": "COc1cccc(C(=O)Nc2ccccc2C(=O)OCc2cc(=O)n3c(C)csc3n2)c1", "survival": "inactive: 100%"}
{"compound": "CC1=C(c2ccc(C)c(C)c2)S(=O)(=O)N=C1N1CCC(C(=O)NCCc2ccco2)CC1", "survival": "inactive: 72%"}
{"compound": "Cc1ccc(-c2cc(C(=O)N3CCN(S(=O)(=O)c4ccc(Br)cc4)CC3)[nH]n2)cc1C", "survival": "inactive: 80%"}
{"compound": "CS(=O)(=O)N1CCc2cc(C(=O)NCCc3ccccc3)ccc21", "survival": "inactive: 94%"}
{"compound": "CC(C)CCNC(=O)Nc1ccc2c(c1)N(C)C(=O)c1ccccc1S2", "survival": "inactive: 89%"}
{"compound": "Cc1ccc(Cc2cnc(I)c(O)c2)cc1", "survival": "inactive: 80%"}
{"compound": "COC(=O)CS(=O)(=O)c1nc2ccccc2nc1N1CCCCC1", "survival": "inactive: 52%"}
{"compound": "COCCCNC(=O)CN1C(=O)COc2ccc(S(=O)(=O)N3CCCC3)cc21", "survival": "inactive: 79%"}
{"compound": "COc1cccc(NC(=O)Cn2cnc3c(nc4n3CCCCC4)c2=O)c1", "survival": "inactive: 76%"}
{"compound": "COc1ccc(C(=O)NCCn2cc(SCC(=O)NCCc3ccc(OC)c(OC)c3)c3ccccc32)cc1", "survival": "inactive: 74%"}
{"compound": "Cc1ccc(NC(=O)Cn2c(=O)c3cc(Cl)ccc3n3nncc23)cc1", "survival": "inactive: 75%"}
{"compound": "Cc1n[nH]c(C)c1S(=O)(=O)N(CC(=O)NC(C)c1ccccc1)c1ccc(C(C)C)cc1", "note": "(stereo not drawn)", "survival": "active: 54%"}
{"compound": "COC(=O)C1=NNC2C(=O)N(C3CCCCC3)C(=O)C12", "note": "(stereo not drawn)", "survival": "inactive: 79%"}
{"compound": "Cc1ccccc1CNC(=O)C(=O)NCC(c1ccco1)S(=O)(=O)c1ccccc1", "note": "(stereo not drawn)", "survival": "inactive: 92%"}
{"compound": "COc1ccc(C(=O)Nc2nnc(S(=O)(=O)N(C)c3ccc(Cl)cc3)s2)cc1OC", "survival": "inactive: 83%"}
{"compound": "Cc1ccc(CCNC(=O)c2cn(C)c3ccc(S(=O)(=O)N4CCCCC4)cc3c2=O)cc1", "survival": "inactive: 71%"}
{"compound": "Cc1ccc2[nH]c(CSc3nnc(NC(=O)c4ccccc4C)s3)cc(=O)c2c1", "survival": "inactive: 83%"}
{"compound": "O=C1CCCN1c1ccc(S(=O)(=O)NCCOc2ccccc2Cl)cc1", "survival": "inactive: 97%"}
{"compound": "CCC(=O)NCC(c1ccc2c(c1)OCO2)N1CCN(c2ccccc2)CC1", "note": "(stereo not drawn)", "survival": "inactive: 124%"}
